The target in test [1] is T1, DMC1, yeast two-hybrid bait (mouse) (UniProt Q61880).
T1 sequence: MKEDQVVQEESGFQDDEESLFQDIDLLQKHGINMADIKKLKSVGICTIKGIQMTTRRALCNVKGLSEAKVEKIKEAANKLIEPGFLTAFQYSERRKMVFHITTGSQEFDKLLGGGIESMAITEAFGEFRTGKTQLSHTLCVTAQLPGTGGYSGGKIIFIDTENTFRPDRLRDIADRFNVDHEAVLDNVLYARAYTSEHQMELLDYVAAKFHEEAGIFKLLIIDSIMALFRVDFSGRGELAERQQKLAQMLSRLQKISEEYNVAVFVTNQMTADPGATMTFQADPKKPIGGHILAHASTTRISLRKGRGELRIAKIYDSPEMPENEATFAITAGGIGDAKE
In words: two-hybrid; MEIOK21 in pGADT7 as prey, partners in pGBKT7 as bait, co-transformed into Y2H gold strain; tested on SD-Leu-Trp-His plates.

The chains behind the UniProt entries cited, without tags or fusion partners.
UniProt Q08297: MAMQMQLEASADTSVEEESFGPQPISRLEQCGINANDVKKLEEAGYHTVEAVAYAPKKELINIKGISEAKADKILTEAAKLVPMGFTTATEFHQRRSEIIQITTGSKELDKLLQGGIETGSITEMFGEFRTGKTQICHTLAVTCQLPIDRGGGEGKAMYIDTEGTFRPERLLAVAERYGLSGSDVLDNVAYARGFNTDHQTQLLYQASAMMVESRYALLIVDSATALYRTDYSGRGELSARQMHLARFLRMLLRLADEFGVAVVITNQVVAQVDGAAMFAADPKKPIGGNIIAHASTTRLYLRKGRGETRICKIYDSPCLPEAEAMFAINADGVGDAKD
UniProt Q62193: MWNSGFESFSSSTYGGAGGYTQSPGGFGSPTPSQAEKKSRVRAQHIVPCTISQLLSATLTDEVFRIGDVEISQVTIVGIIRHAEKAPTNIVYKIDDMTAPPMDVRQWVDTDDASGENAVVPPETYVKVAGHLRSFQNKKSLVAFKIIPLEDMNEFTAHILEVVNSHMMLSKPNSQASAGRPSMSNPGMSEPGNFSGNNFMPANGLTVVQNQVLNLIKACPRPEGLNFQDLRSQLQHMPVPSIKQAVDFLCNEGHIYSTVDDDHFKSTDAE
UniProt Q9CQ71: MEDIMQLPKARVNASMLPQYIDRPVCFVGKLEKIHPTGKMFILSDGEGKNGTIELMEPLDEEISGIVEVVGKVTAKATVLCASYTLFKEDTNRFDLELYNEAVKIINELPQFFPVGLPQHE

For test [2], the target named is T2, HSF2BP, yeast two-hybrid bait (mouse) (UniProt Q9D4G2).
T2 sequence: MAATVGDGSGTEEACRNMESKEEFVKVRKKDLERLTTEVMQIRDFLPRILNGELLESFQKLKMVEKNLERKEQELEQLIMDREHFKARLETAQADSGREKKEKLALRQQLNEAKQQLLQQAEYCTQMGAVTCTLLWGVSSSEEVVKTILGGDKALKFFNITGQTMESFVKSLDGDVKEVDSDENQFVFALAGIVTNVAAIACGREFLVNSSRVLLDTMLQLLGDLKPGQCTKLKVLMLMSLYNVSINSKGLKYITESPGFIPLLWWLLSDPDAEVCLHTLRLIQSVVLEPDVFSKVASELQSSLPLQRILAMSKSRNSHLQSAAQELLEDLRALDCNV
The test is described as above.

Test [3] concerns the target RAD51, yeast two-hybrid bait (mouse) (UniProt Q08297). The test is described as above.
For test [4], the target named is RPA2, yeast two-hybrid bait (mouse) (UniProt Q62193). The test is described as above.
In test [5] the target is RPA3, yeast two-hybrid bait (mouse) (UniProt Q9CQ71). Described as above.
The target in test [6] is T3, SPATA22, yeast two-hybrid bait (mouse) (UniProt Q5SV06).
T3 sequence: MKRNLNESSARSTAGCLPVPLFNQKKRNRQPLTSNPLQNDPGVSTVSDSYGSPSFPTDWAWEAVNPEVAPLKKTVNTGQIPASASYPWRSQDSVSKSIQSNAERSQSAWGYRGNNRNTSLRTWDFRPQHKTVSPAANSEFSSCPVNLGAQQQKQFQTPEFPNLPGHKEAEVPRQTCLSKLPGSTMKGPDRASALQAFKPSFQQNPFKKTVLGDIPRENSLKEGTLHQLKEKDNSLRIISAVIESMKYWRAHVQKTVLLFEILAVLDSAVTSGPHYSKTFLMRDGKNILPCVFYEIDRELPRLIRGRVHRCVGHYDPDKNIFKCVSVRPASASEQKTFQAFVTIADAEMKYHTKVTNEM
Described as above.

In test [7] the target is T4, MEIOB, yeast two-hybrid bait (mouse), Q9D513.
T4 chain: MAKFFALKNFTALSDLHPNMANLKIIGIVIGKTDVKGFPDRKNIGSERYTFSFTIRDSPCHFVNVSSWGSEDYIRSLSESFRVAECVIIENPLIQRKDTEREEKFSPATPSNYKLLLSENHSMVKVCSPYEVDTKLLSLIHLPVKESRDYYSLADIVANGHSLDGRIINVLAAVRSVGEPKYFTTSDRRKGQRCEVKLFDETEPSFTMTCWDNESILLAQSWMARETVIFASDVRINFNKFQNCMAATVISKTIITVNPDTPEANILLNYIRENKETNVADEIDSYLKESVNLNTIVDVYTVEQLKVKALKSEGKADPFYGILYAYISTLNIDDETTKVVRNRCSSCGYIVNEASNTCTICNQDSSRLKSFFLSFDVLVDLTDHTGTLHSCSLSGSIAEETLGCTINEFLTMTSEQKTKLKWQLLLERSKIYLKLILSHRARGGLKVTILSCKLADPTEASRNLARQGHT
The description is as above. Particulars: remark: other sources report otherwise.

The target in test [8] is T5, RPA1, yeast two-hybrid bait (mouse), Q8VEE4.
T5 chain: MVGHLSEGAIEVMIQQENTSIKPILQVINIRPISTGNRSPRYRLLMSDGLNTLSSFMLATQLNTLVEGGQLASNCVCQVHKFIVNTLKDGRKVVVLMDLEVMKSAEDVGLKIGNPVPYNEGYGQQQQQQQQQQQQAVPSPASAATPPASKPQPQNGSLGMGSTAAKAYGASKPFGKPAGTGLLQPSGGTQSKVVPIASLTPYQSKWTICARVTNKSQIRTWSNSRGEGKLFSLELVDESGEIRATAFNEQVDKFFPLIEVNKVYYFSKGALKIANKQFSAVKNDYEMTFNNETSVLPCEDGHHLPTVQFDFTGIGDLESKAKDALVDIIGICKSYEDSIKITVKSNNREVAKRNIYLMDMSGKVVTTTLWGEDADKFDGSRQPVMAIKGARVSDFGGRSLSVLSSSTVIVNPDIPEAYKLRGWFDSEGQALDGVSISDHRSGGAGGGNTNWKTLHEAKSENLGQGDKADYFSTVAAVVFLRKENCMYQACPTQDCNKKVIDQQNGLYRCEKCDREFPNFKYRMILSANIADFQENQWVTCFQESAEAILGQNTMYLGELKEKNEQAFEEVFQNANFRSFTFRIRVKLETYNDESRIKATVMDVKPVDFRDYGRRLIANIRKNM
The test is described as above. Particulars: remark: other sources report otherwise.

Test [9] concerns the target T6, MEIOK21, endogenous in mouse testis (mouse (endogenous in testis)) (UniProt Q6DIA7).
T6 sequence: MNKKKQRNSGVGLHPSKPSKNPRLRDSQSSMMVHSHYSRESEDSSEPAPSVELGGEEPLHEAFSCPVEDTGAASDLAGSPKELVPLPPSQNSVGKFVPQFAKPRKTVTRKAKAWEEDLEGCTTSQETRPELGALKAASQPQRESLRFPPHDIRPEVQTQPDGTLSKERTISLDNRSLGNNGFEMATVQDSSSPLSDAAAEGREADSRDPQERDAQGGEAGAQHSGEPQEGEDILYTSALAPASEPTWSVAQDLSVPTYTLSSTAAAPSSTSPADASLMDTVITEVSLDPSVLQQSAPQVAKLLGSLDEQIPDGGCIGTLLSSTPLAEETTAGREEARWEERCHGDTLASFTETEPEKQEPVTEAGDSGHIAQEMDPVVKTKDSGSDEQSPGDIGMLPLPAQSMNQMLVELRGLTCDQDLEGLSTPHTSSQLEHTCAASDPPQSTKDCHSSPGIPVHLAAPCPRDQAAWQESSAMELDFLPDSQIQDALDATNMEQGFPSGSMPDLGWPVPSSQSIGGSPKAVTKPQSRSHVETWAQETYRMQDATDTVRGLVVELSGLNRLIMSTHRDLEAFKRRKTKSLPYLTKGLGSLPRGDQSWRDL
The test is described as follows: co-IP; endogenous proteins in WT mouse testis extract (~200 mg), precipitated with anti-MEIOK21 antibody; IgG and Meiok21-/- testis lysate as negative controls; lysis buffer 50 mM Tris-HCl pH 8.0, 120 mM NaCl, 1% NP-40.

The target of test [10] is T7, GFP-tagged full length MEIOK21 (mouse) (UniProt Q6DIA7).
T7 sequence: T6 sequence
In words: co-IP; FLAG-tagged HSF2BP and GFP-tagged MEIOK21 (full length or truncations) co-transfected into HEK-293T cells, lysed after 48 hours, precipitated with GFP antibody; IgG as control.

These are yes or no findings as the source states them, for the method shown. For some of these results: Binding seen in cells or lysates may run through a third protein. Some results given as binding are weak or reduced against the parent protein; the word gives no strength. For some of these results: Where a sequence is shown, tags or fusion partners need not be part of it.

B1: MEIOK21 (meiosis-specific 4930432K21RIK), yeast two-hybrid prey (protein, UniProt Q6DIA7-1 1-600)
chain: T6 sequence
As to B1, the binding entry in test [1] is “no binding”; in test [2], “binds”; in [3] it was “no binding”; in test [4] it was “no binding”; in test [5], “no binding”; in test [6] it was “no binding”.

B2: MEIOK21 (meiosis-specific 4930432K21RIK), yeast two-hybrid prey, Q6DIA7-1 1-600 (protein)
chain: T6 sequence
Turning to B2, the binding result in [7] and in [8] was “no binding” throughout.

B3: HSF2BP, endogenous in mouse testis (protein, UniProt Q9D4G2 1-338)
chain: T2 sequence
For B3, the binding result in test [9] is “binds”.

B4: FLAG-tagged HSF2BP coiled-coil domain (a.a. 1-92) (domain or fragment, UniProt Q9D4G2 1-92)
chain: MAATVGDGSGTEEACRNMESKEEFVKVRKKDLERLTTEVMQIRDFLPRILNGELLESFQKLKMVEKNLERKEQELEQLIMDREHFKARLETA
B4: in test [10], the binding entry is reported as “binds”.

The values above are taken from PMC7337969.
